Reference: article PMC10668032
The other results are listed elsewhere or left out. At the low end of the ranking the order means little.

target: SIX1-Q177R homeodomain (UniProt Q15475); experiment: universal protein binding microarray; settings: Universal all-10-mer PBM (8x60K, AMADID 030236), 300 nM GST-tagged protein, Alexa Fluor 488 anti-GST; buffer, salt, pH and temperature not stated; high values mean tight binding; most listed sequences are background and not binding sites; double strand, one strand shown

| Sequence | binding signal |
| --- | --- |
| AACCCTGC | 0.0585 E-score |
| GAACCCAC | 0.19 E-score |
| GAGCCGAC | -0.0478 E-score |
| AACCGAGC | -0.134 E-score |
| AGGAGTTG | 0.0312 E-score |
| CCGCTTGC | -0.122 E-score |
| ACATGTTA | -0.0791 E-score |
| CGGGTCCC | -0.00739 E-score |
| AAGCTACT | -0.122 E-score |
| CACTGGGG | 0.287 E-score |
| CATAACAA | -0.0397 E-score |
| CACACAGC | 0.127 E-score |
| GATGGACA | 0.0581 E-score |
| CACAAAGC | 0.0208 E-score |
| GAGTATGC | 0.0527 E-score |
| GAGCTAAA | -0.217 E-score |
| ATCCACCC | 0.208 E-score |
| AAGCAGTA | -0.301 E-score |
| CAACTTAG | 0.123 E-score |
| AGGGTGAT | 0.037 E-score |
| TGTACAAA | 0.112 E-score |
| CATGCTCG | -0.102 E-score |
| TAATACAA | 0.00681 E-score |
| AATTTGAT | -0.178 E-score |
| ATACCCAA | 0.153 E-score |

| Sequence | binding signal |
| --- | --- |
| AGAGAGGG | -0.0457 E-score |
| AGGAACTC | -0.279 E-score |
| CTTCGGAC | -0.00526 E-score |
| GCCGCTCA | -0.146 E-score |
| AAACGGTC | -0.276 E-score |
| AGATACTC | 0.13 E-score |
| AGTCATAT | 0.0539 E-score |
| ATAGGGGA | -0.059 E-score |
| AATTTTAC | -0.0032 E-score |
| GCTGCCAC | -0.0573 E-score |
| GCCACTTA | -0.128 E-score |
| AGTAGGTC | -0.062 E-score |
| ATGAGTCG | 0.0171 E-score |
| ATAGCATA | -0.047 E-score |
| CAGACTAG | -0.19 E-score |
| GAGAAAGA | -0.202 E-score |
| TCGGCTCA | -0.213 E-score |
| CGACAGAG | -0.218 E-score |
| CTGGGTCC | 0.00942 E-score |
| GACTACCA | -0.0732 E-score |
| AATCTCAT | -0.165 E-score |
| CACGCCTG | 0.202 E-score |
| TCCTCTAA | -0.0751 E-score |
| CCGTAGAG | -0.108 E-score |
| CCCCGTGC | 0.244 E-score |

| Sequence | binding signal |
| --- | --- |
| CTCTCCCC | -0.0887 E-score |
| AGGTCTAT | -0.171 E-score |
| ACCTCGTA | 0.0135 E-score |
| ACTTTCTG | -0.0154 E-score |
| ATAGGTCA | -0.0545 E-score |
| CCCCTGGC | 0.129 E-score |
| CTTGCAGA | -0.0336 E-score |
| CCGGAGCC | 0.0922 E-score |
| CAGGATAA | 0.0465 E-score |
| CGTAAACG | 0.0318 E-score |
| TCCCGGGA | 0.05 E-score |
| AAACTTCA | -0.133 E-score |
| GAAATTAC | -0.193 E-score |
| CGTCGGTA | -0.132 E-score |
| AAGATACG | -0.109 E-score |
| GGAAGTTA | -0.105 E-score |
| GGCAACCA | -0.0707 E-score |
| AAGGTCGC | -0.12 E-score |
| AGTAAATG | -0.115 E-score |
| ATCGGCTC | -0.0341 E-score |
| AGATCCAA | -0.136 E-score |
| AAAACTTT | 0.0384 E-score |
| GTTTATGA | -0.235 E-score |
| GAAGGGGC | 0.0249 E-score |
| AGAATTTC | -0.193 E-score |

| Sequence | binding signal |
| --- | --- |
| TAGAGCAA | -0.256 E-score |
| ATACAAAT | -0.0329 E-score |
| ATTGAACA | 0.0215 E-score |
| CCGCAGCC | 0.0121 E-score |
| CGATGTGC | -0.15 E-score |
| CGGGCAAA | -0.0934 E-score |
| GGGCAATA | -0.108 E-score |
| GCTTGGGA | -0.0871 E-score |
| CAGGCTAG | -0.0295 E-score |
| AACTCGGT | 0.0864 E-score |
| CCCAGTGA | -0.0336 E-score |
| AATTCCGA | -0.00637 E-score |
| AACTTATT | -0.116 E-score |
| AAGGTGAG | -0.118 E-score |
| ATCTAGCG | 0.00805 E-score |
| CTAAATAG | -0.0533 E-score |
| CCGTAGCC | -0.0577 E-score |
| CCCCCGTC | 0.112 E-score |
| AACCATAA | -0.118 E-score |
| AGTACGAA | -0.168 E-score |
| ATGTGGGA | -0.104 E-score |
| AGCGTAGA | -0.024 E-score |
| TGCAGACA | 0.167 E-score |
| TCCTTAAA | -0.0969 E-score |
| CCTAAGTC | -0.147 E-score |

| Sequence | binding signal |
| --- | --- |
| CAACAGTC | -0.29 E-score |
| GCTATAAA | -0.197 E-score |
| AAGTTCCC | -0.214 E-score |
| CTCGGTTA | -0.161 E-score |
| CCTACGGA | -0.24 E-score |
| GTGCGATA | 0.119 E-score |
| CCTGCGAG | 0.00291 E-score |
| CTAATTCA | -0.261 E-score |
| GGTTGTGA | -0.0383 E-score |
| AATAAAGG | -0.271 E-score |
| AGGCTCCA | -0.24 E-score |
| AAGATAAA | -0.121 E-score |
| AAAATTAT | -0.109 E-score |
| CCACTTGC | 0.163 E-score |
| TAGAGATA | -0.125 E-score |
| CAGTTCCA | -0.0209 E-score |
| CAAATCCC | -0.117 E-score |
| GGCATTCA | -0.0852 E-score |
| ACCAAGAT | 0.0978 E-score |
| CACCAGGA | 0.25 E-score |
| AACCAGAC | -0.0596 E-score |
| ACCTGGCG | 0.0885 E-score |
| CTATTAAC | 0.196 E-score |
| GAGGCCCC | -0.234 E-score |
| AATGCGAT | -0.153 E-score |

| Sequence | binding signal |
| --- | --- |
| GTACTGGA | -0.00455 E-score |
| ACTACTAC | 0.0499 E-score |
| AAGTACAA | -0.224 E-score |
| CTCGGGAC | -0.112 E-score |
| CATACTCC | 0.212 E-score |
| GCTCCCCC | -0.0751 E-score |
| AAACCATA | -0.00435 E-score |
| CAGACTGG | -0.112 E-score |
| TAACTTAA | -0.0624 E-score |
| TTAGGCAA | -0.241 E-score |
| AGCCACGA | -0.134 E-score |
| CTTCCTTC | -0.152 E-score |
| AATGTGCG | 0.108 E-score |
| GCAAATCC | -0.161 E-score |
| TGCTAAAA | -0.00992 E-score |
| AGCTCTCC | -0.322 E-score |
| AGGGCCCA | -0.208 E-score |
| TAATTCCA | 0.0335 E-score |
| AATTCCAA | -0.103 E-score |
| CATGTCCA | -0.138 E-score |
| ATGTAGGA | -0.163 E-score |
| AACGCCTT | -0.258 E-score |
| AGATACAA | -0.197 E-score |
| AGGGACAC | 0.402 E-score |
| AGGAATTG | -0.0536 E-score |

| Sequence | binding signal |
| --- | --- |
| CTTACAGC | -0.163 E-score |
| AAAGTTCG | -0.0652 E-score |
| ATTCTAGA | -0.133 E-score |
| AATGTAAT | -0.201 E-score |
| ATGGTTAG | -0.11 E-score |
| CTTTAACC | -0.0731 E-score |
| CCATATTC | -0.0645 E-score |
| CGCCTTAA | 0.000255 E-score |
| TACTTCAA | -0.024 E-score |
| ACGAGTTA | 0.205 E-score |
| ACAGGAGC | -0.182 E-score |
| ACTCCGTG | 0.253 E-score |
| CATGCGGA | -0.0935 E-score |
| CCCCTCGG | 0.126 E-score |
| AAGTGATG | -0.0838 E-score |
| CAGACAAA | -0.104 E-score |
| ATCTGACG | 0.089 E-score |
| AAGCAATC | -0.0448 E-score |
| CTTCTCGA | -0.223 E-score |
| CGGTTGGC | 0.0284 E-score |
| CCATCAAG | -0.0281 E-score |
| CCCCAACG | 0.0793 E-score |
| AGGAGCAT | -0.134 E-score |
| CGGTTTAC | 0.0979 E-score |
| GAGATCGC | -0.083 E-score |

| Sequence | binding signal |
| --- | --- |
| CTATGGAC | -0.0343 E-score |
| CCACACGA | 0.234 E-score |
| CGGGATTA | 0.051 E-score |
| GGATACCC | 0.403 E-score |
| CGGATAAC | 0.213 E-score |
| CTTCGCTC | -0.126 E-score |
| CGAGCACC | 0.224 E-score |
| ACAGTAAG | -0.0678 E-score |
| CGTACTTC | -0.0533 E-score |
| CATATGGG | -0.094 E-score |
| CAGGTTCG | -0.0744 E-score |
| GGGCAAAC | -0.161 E-score |
| AATGTACG | -0.108 E-score |
| CCAGTAAA | -0.0791 E-score |
| TTAAATAA | -0.0852 E-score |
| ACTGAGCC | -0.0884 E-score |
| CCGTTCGA | 0.137 E-score |
| AGGATCGG | -0.0695 E-score |
| CCATATAG | 0.0347 E-score |
| CGGAACCG | -0.13 E-score |
| ATAACCTA | -0.144 E-score |
| GAATTGGC | -0.166 E-score |
| AGGTATAA | 0.17 E-score |
| GACAGACA | 0.035 E-score |
| GAGTAACA | 0.24 E-score |

| Sequence | binding signal |
| --- | --- |
| TCCAGAGA | -0.236 E-score |
| TCGTCGCA | -0.203 E-score |
| CCATGGAC | 0.138 E-score |
| AACACTTG | 0.336 E-score |
| AATCCTGG | -0.11 E-score |
| ACTGGTCT | -0.0434 E-score |
| ATCTAAGG | -0.104 E-score |
| ATTAAAGC | -0.154 E-score |
| TAGGGTGA | 0.0706 E-score |
| ATTATTTG | -0.136 E-score |
| CCCCTAGG | 0.0554 E-score |
| CTGTAGCA | -0.203 E-score |
| ACGAGAAT | -0.168 E-score |
| ACGTGCCT | -0.14 E-score |
| AAAGTCTG | -0.378 E-score |
| CGATTCCC | 0.00582 E-score |
| AATGTGGT | 0.0523 E-score |
| GCCAAGAC | 0.0011 E-score |
| CTGTGACA | 0.21 E-score |
